# The other results are listed elsewhere or left out.
# B1: Gal 8 (Mus musculus), Q9JL15 (protein)
# chain: MGGSHHHHHHGMASMLSLNNLQNIIYNPIIPYVGTITEQLKPGSLIVIRGHVPKDSERFQVDFQLGNSLKPRADVAFHFNPHFKRSSCIVCNTLTQEKWGWEEITYDMPFRKEKSFEIVFMVLKNKFQVAVNGRHVLLYAHRISPEQIDTVGIYGKVNIHSIGFRFSSASALPHTLGDLQSMETSALGLTQINRENIQKPGKLQLSLPFEARLNASMGPGRTVVIKGEVNTNARSFNVDLVAGKTRDIALHLNPHLNVKAFVRNSFLQDAWGEEERNITCFPFSSGMYFEMIIYCDVREFKVAINGVHSLEYKHRFKDLSSIDTLSVDGDIRLLDVRSW
# How the values were obtained:
# Assay in all cases: glycan array binding signal (z-score within array); higher = stronger binding
# Details in all cases: glycan notation: IUPAC condensed, linker removed; mutation: R82H, R255H
# [1] = target: Fuc(a1-3)[Gal(b1-4)]GlcNAc(b1-3)Gal(b1-3)[Fuc(a1-4)]GlcNAc
# Outline: (§1)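 Glycan array data came from 3228 arrays in the Consortium for Functional Glycomics database, and only arrays with an available protein sequence were kept. Glycan names were put into IUPAC-condensed notation, and columns mapping to the same glycan were averaged. The binding signal is a within-array Z-score, averaged across arrays of one protein sequence run at different concentrations or buffers and across linkers. A negative Z-score can be read as non-binding.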
# [2] = target: Fuc(a1-3)[Gal(b1-4)]GlcNAc(b1-3)Gal(b1-4)[Fuc(a1-3)]GlcNAc
# Outline: as §1
# [3] = target: Fuc(a1-3)[Gal(b1-4)]GlcNAc(b1-3)Gal(b1-4)[Fuc(a1-3)]GlcNAc(b1-3)Gal(b1-4)[Fuc(a1-3)]GlcNAc
# Outline: as §1
# [4] = target: Fuc(a1-3)[Gal(b1-4)]GlcNAc(b1-3)GalNAc
# Outline: as §1
# [5] = target: Fuc(a1-3)[Gal(b1-4)]GlcNAc(b1-6)GalNAc
# Outline: as §1
# [6] = target: Fuc(a1-3)[Gal(b1-4)]GlcNAc(b1-6)[Gal(b1-3)GlcNAc(b1-3)]Gal(b1-4)Glc
# Outline: as §1
# [7] = target: Fuc(a1-3)[Gal(b1-4)]GlcNAc6S
# Outline: as §1
# [8] = target: Fuc(a1-3)[Gal3S(b1-4)]Glc
# Outline: as §1
# [9] = target: Fuc(a1-3)[Gal3S(b1-4)]GlcNAc
# Outline: as §1
# [10] = target: Fuc(a1-3)[Gal3S(b1-4)]GlcNAc6S
# Outline: as §1
# [11] = target: Fuc(a1-3)[GalNAc(b1-4)]GlcNAc
# Outline: as §1
# [12] = target: Fuc(a1-3)[GalNAc(b1-4)]GlcNAc6S
# Outline: as §1
# Fuc(a1-4)GlcNAc = target: Fuc(a1-4)GlcNAc
# Outline: as §1
# Fuc(b1-3)GlcNAc = target: Fuc(b1-3)GlcNAc
# Outline: as §1
# Gal(a1-2)Gal = target: Gal(a1-2)Gal
# Outline: as §1
# Gal(a1-3)Gal = target: Gal(a1-3)Gal
# Outline: as §1
# Gal(a1-3)Gal(b1-3)GlcNAc = target: Gal(a1-3)Gal(b1-3)GlcNAc
# Outline: as §1
# [13] = target: Gal(a1-3)Gal(b1-3)GlcNAc(b1-2)Man
# Outline: as §1
# [14] = target: Gal(a1-3)Gal(b1-3)GlcNAc(b1-2)Man(a1-3)[Gal(a1-3)Gal(b1-3)GlcNAc(b1-2)Man(a1-6)]Man(b1-4)GlcNAc(b1-4)GlcNAc
# Outline: as §1
# [15] = target: Gal(a1-3)Gal(b1-3)GlcNAc(b1-3)GalNAc
# Outline: as §1
# [16] = target: Gal(a1-3)Gal(b1-3)GlcNAc(b1-6)GalNAc
# Outline: as §1
# [17] = target: Gal(a1-3)Gal(b1-3)[Fuc(a1-4)]GlcNAc(b1-2)Man(a1-3)[Gal(a1-3)Gal(b1-3)[Fuc(a1-4)]GlcNAc(b1-2)Man(a1-6)]Man(b1-4)GlcNAc(b1-4)GlcNAc
# Outline: as §1
# Gal(a1-3)Gal(b1-4)Glc = target: Gal(a1-3)Gal(b1-4)Glc
# Outline: as §1
# Gal(a1-3)Gal(b1-4)GlcNAc = target: Gal(a1-3)Gal(b1-4)GlcNAc
# Outline: as §1
# [18] = target: Gal(a1-3)Gal(b1-4)GlcNAc(b1-2)Man
# Outline: as §1
# [19] = target: Gal(a1-3)Gal(b1-4)GlcNAc(b1-2)Man(a1-3)[Gal(a1-3)Gal(b1-4)GlcNAc(b1-2)Man(a1-6)]Man(b1-4)GlcNAc(b1-4)GlcNAc
# Outline: as §1
# [20] = target: Gal(a1-3)Gal(b1-4)GlcNAc(b1-3)GalNAc
# Outline: as §1
# [21] = target: Gal(a1-3)Gal(b1-4)GlcNAc(b1-6)GalNAc
# Outline: as §1
# [22] = target: Gal(a1-3)Gal(b1-4)[Fuc(a1-3)]GlcNAc
# Outline: as §1
# [23] = target: Gal(a1-3)Gal(b1-4)[Fuc(a1-3)]GlcNAc(b1-2)Man(a1-3)[Gal(a1-3)Gal(b1-4)[Fuc(a1-3)]GlcNAc(b1-2)Man(a1-6)]Man(b1-4)GlcNAc(b1-4)GlcNAc
# Outline: as §1
# Gal(a1-3)GalNAc = target: Gal(a1-3)GalNAc
# Outline: as §1
# [24] = target: Gal(a1-3)[Gal(a1-4)]Gal(b1-4)GlcNAc
# Outline: as §1
# [25] = target: Gal(a1-4)Gal(b1-3)GlcNAc(b1-2)Man(a1-3)[Gal(a1-4)Gal(b1-3)GlcNAc(b1-2)Man(a1-6)]Man(b1-4)GlcNAc(b1-4)GlcNAc
# Outline: as §1
# Gal(a1-4)Gal(b1-4)Glc = target: Gal(a1-4)Gal(b1-4)Glc
# Outline: as §1
# Gal(a1-4)Gal(b1-4)GlcNAc = target: Gal(a1-4)Gal(b1-4)GlcNAc
# Outline: as §1
# [26] = target: Gal(a1-4)Gal(b1-4)GlcNAc(b1-2)Man(a1-3)[Gal(a1-4)Gal(b1-4)GlcNAc(b1-2)Man(a1-6)]Man(b1-4)GlcNAc(b1-4)GlcNAc
# Outline: as §1
# [27] = target: Gal(a1-4)Gal(b1-4)GlcNAc(b1-3)Gal(b1-4)Glc
# Outline: as §1
# Gal(a1-4)GlcNAc = target: Gal(a1-4)GlcNAc
# Outline: as §1
binder,measurement,setting,value
B1,glycan array binding signal (z-score),[1],-0.269
same,glycan array binding signal (z-score),[2],-0.241
same,glycan array binding signal (z-score),[3],-0.28
same,glycan array binding signal (z-score),[4],-0.053
same,glycan array binding signal (z-score),[5],-0.212
same,glycan array binding signal (z-score),[6],-0.255
same,glycan array binding signal (z-score),[7],-0.248
same,glycan array binding signal (z-score),[8],-0.192
same,glycan array binding signal (z-score),[9],-0.224
same,glycan array binding signal (z-score),[10],-0.222
same,glycan array binding signal (z-score),[11],-0.253
same,glycan array binding signal (z-score),[12],-0.25
same,glycan array binding signal (z-score),Fuc(a1-4)GlcNAc,0.01
same,glycan array binding signal (z-score),Fuc(b1-3)GlcNAc,-0.067
same,glycan array binding signal (z-score),Gal(a1-2)Gal,-0.153
same,glycan array binding signal (z-score),Gal(a1-3)Gal,-0.211
same,glycan array binding signal (z-score),Gal(a1-3)Gal(b1-3)GlcNAc,-0.019
same,glycan array binding signal (z-score),[13],-0.263
same,glycan array binding signal (z-score),[14],-0.239
same,glycan array binding signal (z-score),[15],-0.292
same,glycan array binding signal (z-score),[16],-0.262
same,glycan array binding signal (z-score),[17],-0.18
same,glycan array binding signal (z-score),Gal(a1-3)Gal(b1-4)Glc,-0.236
same,glycan array binding signal (z-score),Gal(a1-3)Gal(b1-4)GlcNAc,-0.274
same,glycan array binding signal (z-score),[18],-0.172
same,glycan array binding signal (z-score),[19],-0.037
same,glycan array binding signal (z-score),[20],-0.196
same,glycan array binding signal (z-score),[21],-0.243
same,glycan array binding signal (z-score),[22],-0.27
same,glycan array binding signal (z-score),[23],0.181
same,glycan array binding signal (z-score),Gal(a1-3)GalNAc,-0.229
same,glycan array binding signal (z-score),[24],-0.236
same,glycan array binding signal (z-score),[25],-0.11
same,glycan array binding signal (z-score),Gal(a1-4)Gal(b1-4)Glc,-0.18
same,glycan array binding signal (z-score),Gal(a1-4)Gal(b1-4)GlcNAc,-0.256
same,glycan array binding signal (z-score),[26],-0.229
same,glycan array binding signal (z-score),[27],-0.123
same,glycan array binding signal (z-score),Gal(a1-4)GlcNAc,-0.228

# Source: the supplement of paper PMC8728848
